# In the supplement of paper PMC11383711:
# Some of the results follow. Binding of human antibodies (heavy:light variable regions, tested as scFv in one mRNA-display pool) to influenza hemagglutinin, with or without the stem antibody CR9114 bound first. Score = (mean enrichment − median) / interquartile range of that screen; higher = more enriched, 0 = typical non-binder. Active = above the paper's cut-off per screen: stems 28; unblocked H1 Solomon Islands 5, H1 Michigan 3, H3 5, H5 19, H7 2.85, both B 5; blocked 9, 7, H5 10, H7 10, B Phuket 10, B Lee 11.5. Scores are scaled within each screen and are no affinities; replicates correlate at about 0.6 to 0.9, and antibodies rare in the pool are noisier.
# B1: FluA-152 (protein)
# chain 1: QVTLRESGPALVKPTQTLTLTCTFSGFSLSTSGMCVSWIRQPPGKALEWLARIDWGDDKYYSTSLKTRLTISKDTSKNQVVLRMINMDPVDTATYYCARTHAERLYTSDYYYYAMDVWGQGTTVTVSS
# chain 2: DIQMTQSPSSLSASVGDRVTITCRASQSISNYLNWYQQKPGKAPKLLIYVASNLQTGVPSRFSGSGSGTDFSLTISSLQPEDFATYYCQQTYSSLTFGQGTRLAIK
# B2: 051-09-5D01 (protein)
# chain 1: QVQLVESGGGVVQPGRSLRLSCAASGFAFSNYAMHWVRQAPGKGLESVAVVLYDGNSEYYADSVKGRFTISRDTSKNLVYLQMNSLRPEDTAVYYCVKDSEYADYDPVYWGQGTLVTVSS
# chain 2: DIQMTQSPSTLSASVGDRVTITCRASHSVSTWLAWYQQKPGKAPKPLIYKASNLESGVPSRFSGSGSGTEFTLTISSLQPDDFATYYCKQYNRYLWTFGQGTKVEIK
# B3: antibody 2B03 (protein)
# chain 1: QVQLQESGPGLVKPSQTLSLTCTVSGASVGSGTYYWTWIRQRPGTGLEWIGYIYDSGTTYYNPSLRSRLIISSDTSTNHFSLNLKSVTAADTAVYYCARVGHGDYVGYLDYWGQGILVTVSS
# chain 2: SYELTQPLSVSVALGQTARITCGGSNIGSKNVHWYQQKPGQAPILAIYRDNNRPSGIPERFSGSNSGNTATLIISRAQAGDEADYYCQVWDTSIAVVFGGGTKLTVL
# B4: K77-2D01 (protein)
# chain 1: QVQLVQSGAEVKKPGASVKVSCKASGYTFTDHHMHWVRQAPGQGLEWMGMINPSAASITYAPRFLGRVTMTRDTSTSTVYMELSSLRPEDTAVYYCAKVGIAVTGRGPHFYYYGLDVWGQGTTVTVSS
# chain 2: EIVLTQSPGTLSLSPGERATLSCRASQSVSDSYLAWYQHKPGQAPRLLMYGASSRATGIPERFSGSGSGTDFTLTISRLEPEDFAVYYCHRHGGVFGGGTKVEIK
# B5: 01.o.02 (protein)
# chain 1: QVQLQESGPGLVKPSETLSLICTVSSYSITSGYYWGWIRQPPGKGLEWIGNVYHSGSTHYNPSLKSRVTISLDTPKKQVSLRLSSLTAADTAVYYCTHSIIGNGRDFWGQGTLVAVSS
# chain 2: EIVMTQAPGTLSWSPGERTTLSGRASQQVSIIYLAWYQQRPEQAPSLIMYGASSRARGIPDRFSGRGLGTDFTLIISRQEPEDSTEYCCQQCGSTYLTFGQGTKVEIK
# B6: 01.ad.01 (protein)
# chain 1: EVQLAESGGGLVQPGGSLRLSCAASGFSFHSYAMNWVRQAPGKGLEWVSGTGGSGLSTYYADSVKGRFTISRDNSKNTLYLQMNRLRAEDTAVYYCAKSPSWDKNFYDSGSYYFYFDYWGQGNLVTVSS
# chain 2: EIVLTQSPVSLSLSPGERAALSCRASQSLSSRFLAWYQQKPGQAPRLLIHGASSRATGIPDRFSGSGSGTDFTLTISRLEPEDFAVYYCQQYGSAPLTFGGGTKVEMK
# B7: antibody 4D02 (protein)
# chain 1: VQLVESGGGLIQPGGSLRLSCAASGFTVSSNYVSWVRQAPGRGLEWVSIIYSDGRTYYADSVKGRFNISRDNSKNTLYLQMNSLRAEDTAVYYCARDFYGDYYNNGMDVWGQGTTVTVSS
# chain 2: DIQMTQSPSSLSASVGDRVTITCRAGQSISNYLNWYQQKPGRAPKLLISGASSLQAGVPSRFSGSGSGTDFTLTISSLQREDFATYYCQQSYSIPQTFGQGTKVEIK
# B8: antibody 3G01 (protein)
# chain 1: VQLVESGGGVVQPGRSLRLSCAASGFTFGSYGMHWVRQAPGKGLEWVSVIYYDGRNKYYADSVKGRFTISRDNLKNTLYLQMNSLRAEDTAVYYCARDHNSYHYFDYWGRGTLVTVSS
# chain 2: NFMLTQPRSVSGSPGETVTISCTSSGRIVSGYVQWCQQRPGSAPITVIYESDQRPSGVPNRFSGSIDSSSQSASLTISGLETEDEADYYCQSSDRDNQGIFGGGTRLTVL
# B9: antibody 3F05 (protein)
# chain 1: VQLVESGGGVVQPGRSLRLSCAASGFTFMSYNIHWFRQAPGKDLQWVAVVWYEGSTKFYGDSVKGRLTISRDNSKDMVYLQMNNLRAEDTAIYYCAREAVSPGPDDIYFGMDVWGHGTTVTVSS
# chain 2: EIVLTQSPATLSLSPGERATLSCRASQSVGSYLAWYQQKPGQAPRLLIYDVSNRATGIPARFIGSGSGTDFTLTISSLEPEDSAVYYCQQRSNWPPGVTFGPGTKVDIK
# B10: C1-3E05 (protein)
# chain 1: VQLQESGPGLVTPSETLSLTCTVSGGSISSTIHYWGWIRQPPGKGLEWIGSVYYDGMTYHNPSLKSRVTMSADTSKNQFSLELSSVTAADTAVYFCARQQEGYYYYYGMDVWGQGTTVTVSS
# chain 2: EIVLTQSPGTLSLSPGERATLSCRASQSVNSNYLAWYQQKPGQAPRLLIYGASSRATGIPDRFSGSGSGTDFTLTISRLEPEDFAVYYCQQYTSPGFTFGPGTKVDIK
# B11: antibody 2E03 (protein)
# chain 1: VQLVESGGGLVQPGRSLRLSCAASGFSFYDYAMSWVRQAPGRGLEWVGFIRSYTYGGTTEYAASVRGRFTISRDDSNNIAYLQMNSLKTEDTAVYYCTNLGSSWLNAGLYYYYDMDVWGQGTTVTVSS
# chain 2: DIQMTQSPSSLSASVGDRVTITCRASQSIRRYLNWFQQRPGKAPKLLIYEVSNLPTGVPSRFSGSGSGTDFTLTISGLRPEDFATYFCQQNFRTFGPGTKVDIK
# B12: antibody 3E01 (protein)
# chain 1: VQLVQSGAEVKKPGASVKVSCKTSGYTFTIYEINWVRQATGQGLEWMGTMNPNSATTGSAQKFQGRLTMTGNTSLRTTYMELSSLTSEDTAVYYCARLVSCGGDCYYFDSWGQGTLVTVSS
# chain 2: SYELTQAPSVSVAPGQTARIPCGGNNIGTKSVHWYQQRPGQAPVLVVYDDSDRPSGIPERFSGSNSGNTATLTISRVEAGDEADYYCQVWDSSGDQFGGGTKLTVL
# B13: R95-2A04 (protein)
# chain 1: QVQLEQSGAEVKKPGASMKVSCKTSGYSFNAYFIHWVRQAPGQGLEWMGRINPTSGGTDYAQRFQDRVTMTRDTSINTAYMELSRLKSDDSALYYCTRALYYDSIAYYFDYWGRGTLVTVSS
# chain 2: SYELTQPPSVSVSPGQTASITCSGDELGKKYACWYQQKPGQSPAMVIYGDNKRPSGIPERFSGSNSGDTATLTISGTQAVDEAGYYCQTWDSRTAVFGTGTKV
# B14: antibody 3G02 (protein)
# chain 1: VQLVESGGGVVQPGGSLRLSCAASSFTFRNYAMFWVRQAPGKGLEWLALIRNDGSEQNYAEVVKGRFTISRDNSKKTLYLQMNSLRPEDTAVYYCARNHLYAAYNSYYYGMDDWGQGTTVTVSS
# chain 2: DIQMTQSPSSLSTSVGDRVTITCQASQGIRNFLNWYQQKPGKAPKLLIYDASILETGIPSRFSGSGSGTDFTFTINSLQPEDIAIYYCQQYVNFPLTFGGGTKVEIK
# B15: 56.j.01 (protein)
# chain 1: QVQLVQSGAEMKKPGASVKVSCKASGYTFTNYYIHWMRQAPAQGLEWMGIINPSDDSTTYAQRFQGRVTMTSDTSTSTVYMELSSLRSEDTAVYYCAKLGYWTDDYWGQGTLVTVSS
# chain 2: DIQMTQSPSSLSASVGDRVTITCRASQGIGNYLAWYQQKPGKVPKLLIFAASTLQSGVPSRFSGSGSGTDFTLTISSLQPEDVATYYCQIFNSALGPLTFGGGTKVEI
# B16: antibody 2F01 (protein)
# chain 1: ESGGGLIQPGGSLRLSCVASGFTINSFAMSWVRQAPGKGLQWVSSVNEQATYYAESVEGRFTISRDRSRNTLFLQMNYLRVEDTATYYCANDVDGDAGTWFESWGQGALVTVSS
# chain 2: EIVMTQSPDTLSVSPGERATLFCRASQNVKSNLTWYQQRPGQPPRLLIFGASTRATGVPARFSGSGSGTEFTLSISSLQSEDSAIYSCQQYNDWPPTFGQGTKVEIK
# B17: K77-1D03 (protein)
# chain 1: EVQLFESGGDLIQPGGSLRLSCAAFAFTFSSYAMTWVRQAPGKGLEWVSGISGSGYRTHYADSVKGRFTISRDNSKNTLYLQMNSLRGEDTAVYYCAKVSSDFTIYGEGYYYYDMDVWGQGTTVTVSS
# chain 2: DIQMTQSPSSLSASVGDRVTIACRASQYIRTYLNWYQQKIGKAPKALIYGASDLESGVPSRFSGSGSGTDFNLTISSLQPEDFATYYCQQTYTTPPFTFGPGTKVEIK
# B18: W85-2B12 (protein)
# chain 1: EVQLVESGGGVVQPGRSLRLSCAVSGFTFSSFAMHWVRQAPGKGLEWMAVISYNGINKDYADSVKGRFTISRDNSKNTLYLQVSSLRPEDTAVYYCASGQRQFDYFPDGDYYYFDSWGQGTLVTVSS
# chain 2: QSALTQPASVSGSPGQSITISCTGTSSDVGGYNYVSWYQQHPGKAPKLMIYEVNNRPSGVSNRFSGSKSGNTASLTISGLRAEDEADYYCSSYTSTSPLVFGGGTKLTVL
# B19: R95-2E02 (protein)
# chain 1: EVQLVESGGGLIQPGGSLRLSCTASGFTFHDHAMHWVRQPPGKGLEWVSGISWNGGDMKYGGSVKGRFITSRDNGKKSLYLQMNSLRPEDTAVYYCAKEISVRYYDFWSGYLGKPRGMDVWGQGTTVTVSS
# chain 2: QSVLTQPPAASGTPGQTVNITCSGSPSNIGSETVNWYQRLPGTAPKLLIYSSNQRPSGVPDRFSGSKYGTSASLVISGLQSEDEGDYYCAVWDESRNGFYVFGTGTKVTVL
# Target: H1 HA stem construct (mini-HA #4900)
# Experiment: mRNA display binding score; higher = more enriched on the antigen
# Conditions: antigen blocked with: nothing
# Experimental: (§1)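 A pool of natively paired antibodies, displayed as scFv on mRNA, was selected once on antigen-coated beads and sequenced before and after; two replicates.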
row,Binder,mRNA display binding score
1,B1,inactive: 1.05
2,B2,inactive: -0.703
3,B3,inactive: 0.139
4,B4,inactive: -0.267
5,B5,inactive: 0.628
6,B6,inactive: 0.226
7,B7,inactive: -0.623
8,B8,inactive: -0.314
9,B9,inactive: -0.646
10,B10,inactive: -0.462
11,B11,inactive: 0.317
12,B12,inactive: -0.498
13,B13,inactive: 0.164
14,B14,inactive: 1.05
15,B15,inactive: 0.572
16,B16,inactive: 0.133
17,B17,inactive: 0.228
18,B18,inactive: -0.648
19,B19,inactive: -0.531

# Target: H3 HA stem construct (H3ssF)
# Experiment: as above
# Conditions: antigen blocked with: nothing
# Experimental: as §1
row,Binder,mRNA display binding score
1,B1,inactive: 0.32
2,B2,inactive: -0.43
3,B3,inactive: -0.00774
4,B4,inactive: -0.189
5,B5,inactive: 1.88
6,B6,active: 329
7,B7,inactive: -0.638
8,B8,inactive: -0.255
9,B9,inactive: -0.0501
10,B10,inactive: -0.584
11,B11,inactive: 0.261
12,B12,inactive: -0.441
13,B13,inactive: -0.157
14,B14,inactive: 0.338
15,B15,active: 343
16,B16,inactive: -0.263
17,B17,inactive: 0.199
18,B18,inactive: -0.694
19,B19,inactive: -0.309
